# According to the supplement of paper PMC3334620:
# The full ranking holds about 33,000 sequences; the median of “E-score (-0.5 to 0.5)” is about -0.036, and the highest 2% start at about 0.37. The list shows a part of the results.
# Biological target: T1, Yer064c (UniProt P40041)
# T1 sequence: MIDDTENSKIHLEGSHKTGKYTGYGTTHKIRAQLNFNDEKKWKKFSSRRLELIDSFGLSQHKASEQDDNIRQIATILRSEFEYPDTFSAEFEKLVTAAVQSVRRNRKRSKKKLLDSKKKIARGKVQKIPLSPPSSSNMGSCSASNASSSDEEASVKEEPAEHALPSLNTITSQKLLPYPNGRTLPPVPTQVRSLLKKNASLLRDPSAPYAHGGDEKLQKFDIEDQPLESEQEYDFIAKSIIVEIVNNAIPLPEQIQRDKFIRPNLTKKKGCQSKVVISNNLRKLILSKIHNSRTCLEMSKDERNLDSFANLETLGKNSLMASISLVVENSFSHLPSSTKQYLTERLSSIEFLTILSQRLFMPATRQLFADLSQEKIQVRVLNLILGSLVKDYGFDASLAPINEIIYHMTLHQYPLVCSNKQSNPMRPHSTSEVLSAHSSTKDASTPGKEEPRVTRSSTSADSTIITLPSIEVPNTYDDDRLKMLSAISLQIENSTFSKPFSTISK
# Assay: PBM E-score (8-mer binding enrichment) (E-score (-0.5 to 0.5)); higher = stronger / more preferred TF binding; most listed sequences are background and not binding sites
# Details: protein concentration: 200 nM; construct: GST-full length
# Method in brief: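 Using PURExpress in vitro transcription/translation, GST-tagged yeast transcription factors were made in full-length or DNA-binding-domain form. These were applied at about 100-200 nM to double-stranded universal all-10-mer Agilent arrays, and bound protein was detected with fluorescent anti-GST. Scans were normalised with masliner before the Universal PBM Analysis Suite assigned E-scores to ungapped eight-base words pooled with their reverse complements.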
row,Sequence,PBM E-score
1,GGGGTCCA,-0.261
2,GCAAAAGC,-0.037
3,CGGTCGTA,-0.192
4,AAGCAATT,0.102
5,AGATGTGA,0.0875
6,GCATTTTA,-0.135
7,TATGAAGA,0.13
8,CGTGTGAG,0.177
9,CATCGACC,-0.0742
10,ACGGCACT,-0.168
11,AAAACTCA,0.143
12,GAATGATA,0.0116
13,CCGTCCTA,-0.149
14,ACAGCTAT,-0.0482
15,GCTGTTAA,0.0119
16,CAGTGACG,-0.0709
17,ACGCGTTG,-0.141
18,ATCGGGTA,-0.0263
19,TACATCGA,-0.0874
20,CTTACGCC,-0.16
21,AGGAATCC,-0.0672
22,CCAGTTCG,-0.128
23,CAGGCCCA,-0.256
24,GCCTAAAA,0.0466
25,CCTGCGCA,-0.352

row,Sequence,PBM E-score
1,GTACCAAC,-0.0957
2,ATCGAAAC,-0.0975
3,ACGCTGAC,0.211
4,CATAAGAG,0.01
5,AGAAGCTC,-0.102
6,AACGGTGG,-0.143
7,GGAGTGCC,-0.362
8,CATGCAGC,-0.068
9,AGAGAGGG,-0.162
10,AAAGCTGC,-0.134
11,ATGCCTCG,-0.0563
12,ACCGGGCA,-0.289
13,AAATGTCT,0.107
14,AATGAGCC,0.162
15,GTCAATCA,0.389
16,CCAAGATC,0.0609
17,ATCTTCCC,-0.067
18,AACCGATG,0.0056
19,ACGATGAC,0.333
20,CGCGTCCG,-0.00585
21,GCCCGACA,-0.192
22,ACTGCACG,-0.049
23,CGCTCGTC,-0.285
24,GATGATTA,0.47
25,ACGTTTCC,-0.197

row,Sequence,PBM E-score
1,CGTCCGCA,-0.0638
2,CGCTCCAA,-0.267
3,CGGAGTTA,-0.0037
4,GTTCTAAA,-0.0695
5,CCCCGAGA,-0.181
6,AACACTTG,0.143
7,GCCTACAA,-0.0831
8,TCGAGGAA,-0.0713
9,GAGGAGTA,0.00665
10,GCAACGTA,-0.269
11,CACACTTA,0.0285
12,AGGCCTGA,0.0122
13,AGTGGCTG,0.00091
14,CGATCCAA,-0.118
15,CTATGTAA,0.121
16,ATCGAATG,0.0236
17,AGCACTAT,-0.138
18,CTAAAAGA,0.287
19,GCTTATCA,-0.189
20,ACAACATC,-0.143
21,TATATTGA,0.167
22,ATCCGATC,0.00143
23,AATAACGC,-0.0376
24,CTCGTGGC,-0.178
25,CCCCGATA,-0.12

row,Sequence,PBM E-score
1,GGTGAACC,0.123
2,CCCTTAAG,-0.0521
3,AGTCTATC,0.182
4,AACGGCCT,-0.421
5,CCTAAGTA,0.137
6,AGTTAGAA,0.0342
7,CCGGTGTA,-0.162
8,GGCTAACA,0.101
9,ACTCGTAC,0.186
10,ATTAACTA,0.169
11,CCAACTGG,-0.185
12,ATACCGAC,-0.0361
13,ATTAATGG,0.0338
14,ATATACCA,-0.0262
15,GCTGAGTA,0.212
16,CCATATAG,0.0187
17,TAGGTGGA,0.0243
18,GGATCATA,0.0464
19,AAATATAC,0.0617
20,GTTCTCCA,-0.256
21,AACTAGTT,-0.0694
22,CGTATGGA,-0.0542
23,CGACCAAA,-0.0829
24,CAGACGAC,0.137
25,ACGTTAGA,0.111

row,Sequence,PBM E-score
1,CAAACGCC,-0.145
2,AAGTCACA,0.414
3,GGTTCCCA,-0.0406
4,GGAATGAC,0.182
5,CGCCGTTA,0.173
6,ATAACCAC,0.0837
7,GTCACGAC,0.324
8,CCCAACAG,-0.0928
9,ATTGGAGC,0.046
10,AAATCAGT,0.178
11,AGTGATAC,0.0829
12,ATGTCTAA,0.262
13,GAACAGGA,-0.165
14,CCTCCACA,-0.119
15,CAAGTTGC,-0.184
16,GTGCCTTA,-0.0701
17,GTTTAACA,0.0707
18,AGTACCTC,-0.00168
19,GGCTTCCC,-0.291
20,AGGTCGAT,0.0253
21,GATACGAC,0.192
22,GATCTCCA,-0.133
23,ACTCTTAG,0.198
24,GAACCAAC,-0.0543
25,GATATCGA,-0.0649

row,Sequence,PBM E-score
1,ATCCGCCA,0.151
2,ACGTTCAT,-0.206
3,GGGCCAGA,-0.241
4,GACACCCA,0.093
5,AAGAATCT,0.0452
6,AAACCGTC,-0.0577
7,ACGTAAAC,-0.208
8,TACTTCGA,0.147
9,AATGCTAT,0.00613
10,GGGCTAGA,-0.15
11,ACTCCTCC,0.0562
12,AGGCATGA,0.0451
13,TCGAAAAA,0.0947
14,AAGCCTCA,-0.263
15,TCTCCTAA,0.0806
16,AACAGCGC,-0.0819
17,ACAACTAG,-0.0926
18,GGTTCCAA,-0.00231
19,CCGAGCGA,-0.0564
20,CAAATGCC,-0.188
21,AATAGGCT,-0.0339
22,AAGACCCG,-0.0897
23,GGGATAAC,-0.184
24,CTAATTGC,0.115
25,CAGCGCCC,-0.151

row,Sequence,PBM E-score
1,GTCGGCAA,0.0157
2,CCTGTTGC,-0.287
3,GGGTCTCA,-0.137
4,AGCTGCAA,-0.175
5,ACCGACTA,0.184
6,GGGTGGAC,0.0463
7,GACCCCGA,-0.0887
8,CGATTTGA,0.23
9,GAACTCCC,-0.00449
10,ACTTTATC,0.232
11,GGAGCTTA,-0.108
12,GGGCCTCA,-0.346
13,AATAGGTC,-0.129
14,ACCGATTA,-0.071
15,CTGATTGA,0.305
16,AATAGCGA,0.0521
17,AAACCACT,-0.0202
18,GCCCGGAC,-0.22
19,CCTCCGAA,-0.284
20,GAACAGGC,-0.161
21,AATACCTG,-0.293
22,ACTCGCTA,0.213
